87 compounds from PMC4336329 (PLoS ONE, 2015) can be followed below.

In all, about 310,000 compounds went through this assay and about 2,200 (0.71%) showed an effect of 50% or more. The effect is printed as a negative number. The list shows a part of the results.

The target in the assay is human ether-à-go-go-related gene (hERG) potassium channel (human, UniProt Q12809). Description: primary screen, population patch clamp on CHO cells stably expressing hERG.
Sequence of human ether-à-go-go-related gene (hERG) potassium channel (Q12809 whole entry, looked up): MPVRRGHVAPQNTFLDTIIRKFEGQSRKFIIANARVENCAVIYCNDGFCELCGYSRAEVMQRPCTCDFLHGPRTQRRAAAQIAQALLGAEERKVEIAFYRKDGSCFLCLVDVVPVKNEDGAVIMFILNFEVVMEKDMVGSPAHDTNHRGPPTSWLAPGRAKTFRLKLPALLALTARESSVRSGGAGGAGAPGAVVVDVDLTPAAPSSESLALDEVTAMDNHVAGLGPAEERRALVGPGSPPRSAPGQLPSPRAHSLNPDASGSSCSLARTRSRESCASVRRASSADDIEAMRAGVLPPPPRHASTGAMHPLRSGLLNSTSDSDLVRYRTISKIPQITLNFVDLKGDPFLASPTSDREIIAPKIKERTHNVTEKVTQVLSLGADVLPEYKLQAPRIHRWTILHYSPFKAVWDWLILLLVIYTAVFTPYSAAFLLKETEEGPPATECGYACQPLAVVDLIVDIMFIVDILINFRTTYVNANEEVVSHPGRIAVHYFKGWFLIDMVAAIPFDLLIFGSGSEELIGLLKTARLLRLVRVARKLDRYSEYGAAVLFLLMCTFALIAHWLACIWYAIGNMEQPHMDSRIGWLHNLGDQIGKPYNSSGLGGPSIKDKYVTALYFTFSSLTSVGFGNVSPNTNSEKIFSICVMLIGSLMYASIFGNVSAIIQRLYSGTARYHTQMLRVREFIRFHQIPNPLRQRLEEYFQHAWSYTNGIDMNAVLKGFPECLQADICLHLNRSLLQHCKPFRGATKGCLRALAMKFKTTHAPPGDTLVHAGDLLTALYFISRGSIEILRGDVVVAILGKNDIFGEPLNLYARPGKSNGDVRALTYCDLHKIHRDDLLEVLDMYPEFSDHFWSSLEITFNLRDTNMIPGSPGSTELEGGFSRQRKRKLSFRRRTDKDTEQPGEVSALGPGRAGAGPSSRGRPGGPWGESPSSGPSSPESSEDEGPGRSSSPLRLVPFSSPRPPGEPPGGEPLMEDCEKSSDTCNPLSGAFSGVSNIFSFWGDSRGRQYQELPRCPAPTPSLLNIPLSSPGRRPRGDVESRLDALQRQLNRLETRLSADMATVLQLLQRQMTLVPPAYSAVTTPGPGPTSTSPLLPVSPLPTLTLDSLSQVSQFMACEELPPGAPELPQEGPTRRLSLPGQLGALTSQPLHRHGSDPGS
With `Cc1ccc2nc(-c3ccncc3)cc(C(=O)N3CCOCC3)c2c1`, the “hERG current change (%, negative = inhibition) at 1uM” value worked out at 7.66%.

As for `CCOc1ccc(/C=N/Nc2ccc(C(F)(F)F)cc2[N+](=O)[O-])cc1O`, the “hERG current change (%, negative = inhibition) at 1uM” value is -1.39%. The value for `Cc1ccc(C(=O)Oc2ccccc2N2C(=O)C3CCCCC3C2=O)cc1` (stereo not drawn) was -1.27%; that for `CC/C(=C/c1sc2ccc(C)cc2[n+]1CCO)SC.COS(=O)(=O)[O-]` was 14.9%; that for `CCCOc1cccc(-c2cc(C(=O)N/N=C/c3cccnc3)c3ccccc3n2)c1` was 16.6%. Turning to `CCCCN(C(=O)Cc1ccc2c(c1)OCCO2)c1c(N)n(CCC)c(=O)[nH]c1=O`, the “hERG current change (%, negative = inhibition) at 1uM” value worked out at 18.9%. As to `CN(CC(=O)Nc1ccc(Cl)cc1F)C1CCS(=O)(=O)C1` (stereo not drawn), the “hERG current change (%, negative = inhibition) at 1uM” value is listed as 2.32%.

Consider `Cc1cc(C)cc(OCC(=O)OCC(=O)NCCC2=CCCCC2)c1`, for which the “hERG current change (%, negative = inhibition) at 1uM” value worked out at 7.97%. The value for `CCc1cc(CC)c(/C=N/NC(N)=O)c(CC)c1` was 3.86%; that for `O=c1c2ccccc2nc(-c2ccccc2)n1CCCN1CCOCC1` was 4.9%; that for `Cc1ccc(CN2C(=O)CSC(C)C2=O)cc1` (stereo not drawn) was 12.4%. The value for `CC(=O)c1cn(C(=O)c2ccc(Cl)cc2)c2ccccc12` was 14.2%; that for `COC(=O)CCN(C(=O)c1ccc(N2CCCC2)c([N+](=O)[O-])c1)c1ccccn1` was 11.3%. In the case of `Cc1ccc(C)c(NC(=O)CCc2ccc(C)o2)c1`, the “hERG current change (%, negative = inhibition) at 1uM” value stood at 11.8%. `CC(C)CCNc1nc(N)c([N+](=O)[O-])c(NCCO)n1`: the “hERG current change (%, negative = inhibition) at 1uM” value worked out at 15.4%. The value for `Cc1cc2oc3ccc(NCCC4CCCN4C)cc3c(=O)c2cc1C` (stereo not drawn) was 12.5%. Consider `O=C(c1ccccn1)N1CCN(S(=O)(=O)c2ccc3ccccc3c2)CC1`, for which the “hERG current change (%, negative = inhibition) at 1uM” value came to 3.18%. Take `Cc1c(O)nc(SCC(=O)Nc2ccc3c4c(cccc24)CC3)n(-c2ccccc2)c1=O`: the “hERG current change (%, negative = inhibition) at 1uM” value came to 14.9%.

For `O=C(CSc1n[nH]c(-c2ccccn2)n1)Nc1ccccc1F`, the “hERG current change (%, negative = inhibition) at 1uM” value came out at 11%. The value for `Cc1onc(-c2ccccc2Cl)c1C(=O)OCC(=O)c1ccc[nH]1` was 2.49%. The value for `C=C(C)CSc1nc2sc3c(c2c(=O)n1-c1ccc(OC)cc1)CCN(C)C3` was 9.61%; that for `O=C(CSc1nc(O)cc(=O)[nH]1)N1c2ccccc2CCc2ccccc21` was 7.15%. Turning to `O=C1C2C(c3ccccc3)CC=CC2[C@H](c2ccoc2)N1Cc1ccccc1` (stereo partly drawn), the “hERG current change (%, negative = inhibition) at 1uM” value worked out at 8.12%. Take `COc1ccc(/C=C/C(=O)NC2CCCCC2C)cc1` (stereo not drawn): the “hERG current change (%, negative = inhibition) at 1uM” value came out at 14.9%. As to `COc1ccc(CCC(=O)NNC(=O)c2cc(Cl)ccc2OC)cc1`, the “hERG current change (%, negative = inhibition) at 1uM” value is reported as 2.27%. On to `Cc1cc(C)c2c(c1)/C(=N/NC(=O)c1cc(C)oc1C)CCC2`, for which the “hERG current change (%, negative = inhibition) at 1uM” value is on record as 10.2%.

In the case of `CCCCCNC(=O)c1cn(CC)c2cc(N3CCN(C)CC3)c(F)cc2c1=O`, the “hERG current change (%, negative = inhibition) at 1uM” value is recorded as 0.584%.

With `Cn1c(-c2ccc3c(c2)OCO3)cnc1NC(=O)CCC(=O)NCCc1ccccc1`, the “hERG current change (%, negative = inhibition) at 1uM” value is given as 7.5%. As for `O=C(NCc1ccccc1OC(F)(F)F)C1CCC(=O)N(C2CC2)C1` (stereo not drawn), the “hERG current change (%, negative = inhibition) at 1uM” value is on record as 4.78%. Next, `O=C(Nc1ccc(S(=O)(=O)NC2=NCCCCC2)cc1)c1ccc(C(F)(F)F)cc1`: -3.67%. As to `Cc1ccc(-n2nnnc2SCC(=O)Nc2ccc3c(c2)COC3=O)cc1C`, the “hERG current change (%, negative = inhibition) at 1uM” value is recorded as 12%. In the case of `CCOC(=O)c1nn(-c2ccccc2)c(=O)cc1OCC(=O)Nc1ccccc1OCC`, the “hERG current change (%, negative = inhibition) at 1uM” value was -1.83%. With `COc1cc(C2CC(=O)c3c([nH]c(C(=O)OCCOC(C)C)c3C)C2)cc(OC)c1OC` (stereo not drawn), the “hERG current change (%, negative = inhibition) at 1uM” value is 4.87%. With `CC1CC2=C(CC1/C=N/NC(N)=S)C(C)(C)CCC2` (stereo not drawn), the “hERG current change (%, negative = inhibition) at 1uM” value is recorded as -7.01%.

With `Cc1cc(OCC(=O)NC(Cc2ccc(Cl)cc2)C(=O)O)c2c3c(c(=O)oc2c1)CCC3` (stereo not drawn), the “hERG current change (%, negative = inhibition) at 1uM” value is 13.8%.

In the case of `CCC(C)CCN1C(N(C)C)=NC[C@@H]1Cc1ccccc1` (stereo partly drawn), the “hERG current change (%, negative = inhibition) at 1uM” value came out at 3.7%. Next, `O=C(CCCN1C(=O)/C(=C\c2cccs2)SC1=S)Nc1ccc(C(=O)O)cc1`: 9.15%; `N#CC1=C2SCN(c3ccc(F)cc3)CN2C(=O)CC1c1cccc(F)c1` (stereo not drawn): 8.47%; `Cc1ccc(N2C(=O)c3ccc(C(=O)N4CCOCC4)cc3C2=O)cc1C`: 9.52%.

Take `C#CCOCCOCCOCCNc1nc(N2CCN(C(=O)[C@H]([C@@H](C)CC)n3cc(CCC[NH+]=C(N)N)nn3)CC2)nc(N2CCN(C(=O)[C@H](C)n3cc(CCC[NH+]=C(N)N)nn3)CC2)n1.[Cl-]`: the “hERG current change (%, negative = inhibition) at 1uM” value is 15.3%. Next, `COc1ccc(/C=N/NC(=O)C2C(C=C(Cl)Cl)C2(C)C)c(OC)c1` (stereo not drawn): -2.05%. The value for `c1ccc(Nc2ccccn2)cc1` was 12%. With `NC(=O)CSc1nnc2n(N)c(=O)c3ccccc3n12`, the “hERG current change (%, negative = inhibition) at 1uM” value is 8.42%. The value for `CCC1CCCCN1CCNC(=O)CNS(=O)(=O)c1ccc2nc(C)sc2c1` (stereo not drawn) was 17.4%; that for `O=C1OC(c2ccc3c(c2)OCO3)N(C(=O)c2ccc(Cl)c(Cl)c2)c2ccccc21` (stereo not drawn) was -11.4%.

On to `Cn1ccnc1/C(=N\NC(=O)c1ccccc1)c1cccc([N+](=O)[O-])c1`, for which the “hERG current change (%, negative = inhibition) at 1uM” value is listed as -14%. The value for `COc1ccc(CN(CCNC(=O)CCCCC(=O)NCCN(Cc2ccc(OC)cc2)C(C)C)C(C)C)cc1.Cl` was 5.4%. With `C=CCOCC(O)Cn1c(N2CCCC2)nc2c1c(=O)n(C)c(=O)n2C` (stereo not drawn), the “hERG current change (%, negative = inhibition) at 1uM” value came out at 15.2%. Regarding `O=c1c2ccccc2[nH]c(=S)n1-c1ccc2c(c1)OCO2`, the “hERG current change (%, negative = inhibition) at 1uM” value was found to be 16.3%.

Take `O=C(Nc1nnc(-c2ccccc2)o1)c1cc(Cl)sc1Cl`: the “hERG current change (%, negative = inhibition) at 1uM” value is listed as 11.1%. Next, `COC(=O)c1ccccc1NC(=O)N1CCN(S(=O)(=O)c2ccc(Cl)cc2)CC1`: 8.85%; `Cc1ccc(N2NC(=O)/C(=C/c3ccc(-c4ccc(Cl)c(C(=O)O)c4)o3)C2=O)cc1C`: 6.3%. Turning to `Cc1ccc(OCCCC(=O)Nc2ccc(S(N)(=O)=O)cc2)cc1`, the “hERG current change (%, negative = inhibition) at 1uM” value came to 9.66%. For `CCOC(=O)N1CCc2c(sc3c2c(=O)n(Cc2ccccc2)c(=O)n3CC(=O)NCC2CCCO2)C1` (stereo not drawn), the “hERG current change (%, negative = inhibition) at 1uM” value was determined as 16.6%. The value for `O=C(NC(=S)NCc1cccnc1)c1cc2ccccc2o1` was 13.9%. The value for `Cc1nc2c3cc(Cl)ccc3n(CCN3CCOCC3)c2s1` was -5.57%; that for `Brc1ccc(COc2ncnc3ccccc23)cc1` was 8.13%; that for `O=C(Nc1scc(-c2ccc(Br)cc2)c1C(=O)O)c1ccccc1F` was 23.3%. With `COc1ccc(-c2cc(C(=O)Nc3c(C)nn(Cc4ccccc4)c3C)no2)cc1`, the “hERG current change (%, negative = inhibition) at 1uM” value is 6.71%.

With `Clc1ccc(NNc2ccnc3cc(Cl)ccc23)cc1`, the “hERG current change (%, negative = inhibition) at 1uM” value was 7.36%.

For the compound `CCOC(=O)c1c(NC(=O)Cn2nc(C(F)(F)F)cc2C)sc2c1CCC2`, the “hERG current change (%, negative = inhibition) at 1uM” value is on record as -8.44%. The value for `CN1CCN(Cc2c(O)ccc3c2oc(=O)c2ccccc23)CC1` was 8.61%; that for `Cc1c(CNCCc2ccccc2Cl)c(C(=O)O)c(C)n1-c1ccccc1` was 12.6%; that for `Cc1ccc(S(=O)(=O)Nc2ccc3c(c2)nc(CN2CCCC2)n3C)cc1` was -9.18%. The value for `CC(=NCCc1c(C)[nH]c2ccc(C)cc12)C1=C(O)CC(c2ccccc2)CC1=O` (stereo not drawn) was 14.9%; that for `Cc1ccc(N=Cc2sc(O)c3ccccc23)c(C)c1` was 24.8%; that for `CC1CCCCN1Cc1ccc(N(C)C)cc1` (stereo not drawn) was 11.4%.

As for `COc1ccc(NC(=O)CSc2nnnn2-c2ccccc2F)cc1`, the “hERG current change (%, negative = inhibition) at 1uM” value came to 10.9%. The value for `COc1ccccc1-c1cc(C(=O)NCc2ccccc2)no1` was -0.335%. For the compound `CCOC(=O)c1sc(NC(=O)C2CC(=O)N(c3ccc(C)cc3)C2)nc1C` (stereo not drawn), the “hERG current change (%, negative = inhibition) at 1uM” value turned out to be 3.68%.

Take `Nc1n[nH]c2c1C1(CCCC1)Cc1ccccc1-2`: the “hERG current change (%, negative = inhibition) at 1uM” value amounted to 15.1%. Next, `O=C(Nc1ccc(Cl)cc1)Nc1ccc(Br)cn1`: 8.2%; `COC(=O)c1ccc(CO/N=C(\NC(C)=O)c2nonc2NC(C)=O)cc1`: 11.1%; `CCN(CC)CCCNC(=O)c1cc2c(=O)n(C)c3ccccc3c2n1C`: 2.21%. Take `O=C(CNC(=O)c1cccs1)c1ccc(Cl)cc1`: the “hERG current change (%, negative = inhibition) at 1uM” value is on record as 13.2%. Next, `CC(CP(=O)(O)O)NC(=O)Cc1ccccc1` (stereo not drawn): 14.2%; `Clc1ccc(CNc2cnccn2)cc1`: 15.7%.

Consider `CCOc1ccc(CC2c3cc(OCC)c(OCC)cc3CCN2C(=O)c2cc(OC)c(OC)c(OC)c2)cc1OCC` (stereo not drawn), for which the “hERG current change (%, negative = inhibition) at 1uM” value came out at 4.1%. Next, `CCOC(=O)c1ccc(N2C(=O)CC(N3CCN(Cc4ccccc4)CC3)C2=O)cc1` (stereo not drawn): -8.05%. Consider `CCOc1ccc(Oc2c(/C=N/NC(N)=O)c(C)nn2-c2ccccc2)cc1`, for which the “hERG current change (%, negative = inhibition) at 1uM” value is 8.08%. The value for `Fc1ccccc1-c1csc(=Nc2cccnc2)n1CC1CCCO1` (stereo not drawn) was -0.0483%; that for `O=C(c1ccc(F)cc1)C1CCN(C(=O)c2ccccc2)CC1` was 9.16%. Next, `Cc1ccc(OCC(O)CN2C(=O)NC(C)(C)C2=O)cc1` (stereo not drawn): 8.66%; `CCOC(=O)C1CN(S(=O)(=O)c2cccc(C(F)(F)F)c2)c2cc(CC(=O)OC)ccc2O1` (stereo not drawn): 11.5%; `CSc1ccccc1NC(=O)C1CCN(S(C)(=O)=O)CC1`: 9.28%.

For the compound `N#CC1(NC(=O)COC(=O)c2cccc(-n3cnnn3)c2)CCCCC1`, the “hERG current change (%, negative = inhibition) at 1uM” value was determined as 12%.

As for `CC(NC(=O)/C(=C/c1ccc2c(c1)OCO2)NC(=O)c1cccc([N+](=O)[O-])c1)C(=O)O` (stereo not drawn), the “hERG current change (%, negative = inhibition) at 1uM” value worked out at 13.6%.
